Results from paper PMC4336329 (PLoS ONE, 2015).
The whole screen tested about 310,000 compounds, of which about 14,000 (4.5%) showed an effect of 50% or more. Effects have a minus sign here. The list shows a part of the results.

target: human ether-à-go-go-related gene (hERG) potassium channel (human, UniProt Q12809); assay: primary screen, population patch clamp on CHO cells stably expressing hERG
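Further: peak tail current of the secondary pulse compared with the same well before compound.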

Sequence of human ether-à-go-go-related gene (hERG) potassium channel (Q12809 whole entry, looked up): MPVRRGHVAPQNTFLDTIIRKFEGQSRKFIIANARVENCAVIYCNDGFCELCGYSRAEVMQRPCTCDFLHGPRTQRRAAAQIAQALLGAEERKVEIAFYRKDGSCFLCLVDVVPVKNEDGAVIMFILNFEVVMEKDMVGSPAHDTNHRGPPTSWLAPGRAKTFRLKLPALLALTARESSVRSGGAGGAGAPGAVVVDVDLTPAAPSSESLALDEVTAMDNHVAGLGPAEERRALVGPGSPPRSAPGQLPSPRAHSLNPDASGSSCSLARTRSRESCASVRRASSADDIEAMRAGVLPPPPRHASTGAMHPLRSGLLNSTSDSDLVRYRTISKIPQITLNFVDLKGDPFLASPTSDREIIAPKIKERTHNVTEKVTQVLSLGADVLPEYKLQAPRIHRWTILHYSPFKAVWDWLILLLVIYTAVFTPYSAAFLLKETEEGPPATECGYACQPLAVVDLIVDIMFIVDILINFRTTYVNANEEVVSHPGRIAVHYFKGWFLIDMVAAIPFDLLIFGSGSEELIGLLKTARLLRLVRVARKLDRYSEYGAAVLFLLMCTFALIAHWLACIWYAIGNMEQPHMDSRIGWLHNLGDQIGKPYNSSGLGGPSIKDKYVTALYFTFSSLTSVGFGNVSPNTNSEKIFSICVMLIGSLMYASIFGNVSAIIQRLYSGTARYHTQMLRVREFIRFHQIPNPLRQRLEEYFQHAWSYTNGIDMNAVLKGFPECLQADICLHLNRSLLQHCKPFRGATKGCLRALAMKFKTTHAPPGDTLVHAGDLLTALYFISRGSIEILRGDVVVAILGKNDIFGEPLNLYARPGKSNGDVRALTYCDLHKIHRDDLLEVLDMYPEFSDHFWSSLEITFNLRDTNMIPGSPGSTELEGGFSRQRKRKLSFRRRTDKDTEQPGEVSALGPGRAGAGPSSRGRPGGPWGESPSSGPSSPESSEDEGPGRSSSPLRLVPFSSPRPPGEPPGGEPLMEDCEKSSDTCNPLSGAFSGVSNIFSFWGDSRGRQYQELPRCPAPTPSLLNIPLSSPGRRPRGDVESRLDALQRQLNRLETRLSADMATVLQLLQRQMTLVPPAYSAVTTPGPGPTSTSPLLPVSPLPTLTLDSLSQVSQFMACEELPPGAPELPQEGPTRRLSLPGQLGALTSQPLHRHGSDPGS

Row | Compound | hERG current change (%, negative = inhibition) at 10uM
1 | CCOC(=O)CC1=C(C(=O)OCC)C(c2ccc(OC)c(OC)c2)C(C#N)=C(N)O1 (stereo not shown) | -12.8%
2 | COc1ccccc1C(=O)C1CCCN(C(=O)c2ccc(C(C)=O)s2)C1 (stereo not shown) | -3.02%
3 | O=C(NCC1CCCO1)c1nn2c(C(F)(F)F)cc(-c3cccs3)nc2c1Br (stereo not shown) | -6.14%
4 | O=C(N/N=C/c1ccc2nccnc2c1)c1ccccc1O | -1.86%
5 | COC(=O)/C=C1\S/C(=N/NC(=O)c2ccccc2)NC1=O | 11.1%
6 | Cc1ccc(Cl)cc1N1CCN(C(=O)Cn2ccc3ccccc3c2=O)CC1 | -8.08%
7 | COc1cc(NC(=O)CN2C(=O)COc3ccc(S(=O)(=O)N4CCOCC4)cc32)cc(OC)c1 | 17.5%
8 | COc1ccc(C2=CC3=C(Br)C(=O)C(C)(O)C(=O)C3=CO2)cc1 (stereo not shown) | 11.9%
9 | Cc1cc(OCC(=O)N(C)C2CCCCC2)cc(C)c1Cl | -0.813%
10 | CCOC(=O)c1ccc2nc(C)c(CC)c(Cl)c2c1 | 10.3%
11 | Cn1ncc2c(Nc3ccccc3Cl)nc(Nc3ccccc3Cl)nc21 | 15.5%
12 | COc1ccccc1CNC(=S)Nc1cc(C)ccc1C | 5.52%
13 | O=C(O)CSc1c[nH]c2ccccc12 | 14%
14 | COc1ccc(-n2nc(C(=O)NCC(=O)NCCCN3CCN(C)CC3)c3ccccc3c2=O)cc1 | 12.5%
15 | CCc1c(C#N)sc(C(N)=O)c1CC | 13.3%
16 | OCCN(CCO)c1ccc(C(c2ccccc2Cl)c2ccc(N(CCO)CCO)cc2Cl)c(Cl)c1 | -30%
17 | Cc1ccc(C2NC(=O)c3ccccc3N2)s1 (stereo not shown) | -0.319%
18 | O=C(CCCOc1ccccc1)Nc1ccccc1C(F)(F)F | -6.98%
19 | Nc1c(C(=O)N/N=C/c2cccnc2)oc2nc(-c3ccccc3)cc(-c3ccco3)c12 | 22.3%
20 | CC1(C)CC(=O)c2cc(OCC(=O)NCCN3CCOCC3)ccc2O1 | 22.7%
21 | CCOc1cc(C(=O)CCC(=O)OCC(=O)Nc2ccc(C)c(S(=O)(=O)N(C)C)c2)ccc1O | -32.7%
22 | COc1ccc(-c2ccccc2NC(=O)C2CCCN(Cc3ccc(C)o3)C2)cc1 (stereo not shown) | -37.2%

Row | Compound | hERG current change (%, negative = inhibition) at 10uM
23 | c1ccc2c(CSCc3nc4ccccc4[nH]3)cccc2c1 | -15.3%
24 | CC1=CN2C(=N)/C(=C\c3cn(CCCOc4ccccc4)c4ccccc34)C(=O)N=C2S1 | -3.08%
25 | O=C(O)c1ccc(NC(=O)c2cccs2)cc1 | 10.1%
26 | CC1CCCN(C(=O)C2CCN(Cc3ccc4c(c3)OCO4)CC2)C1.O=C(O)C(=O)O (stereo not shown) | -0.604%
27 | Cn1cc(CCC(=O)NC2CC2)c2ccccc21 | 3.32%
28 | Cc1ccc2c(c1)N(CC(=O)N1CCOCC1)C(=O)C(C)O2 (stereo not shown) | 17.6%
29 | CC(C)[C@H]1COC(NC2=N[C@@H](C(C)C)CO2)=N1 | 0.625%
30 | COc1ccc(NS(=O)(=O)c2cccc(C(=O)NNC(=O)CNC(=O)c3ccccc3F)c2)cc1 | -5.59%
31 | CC(Oc1ccccc1)C(=O)NC1CCSc2ccccc21 (stereo not shown) | -15%
32 | CCc1nc2ccc(C(=O)NCCc3ccc(OC)cc3)cc2nc1CC | 3.21%
33 | Cc1cccc(C)c1NC(=O)NC1(C(=O)N2CCCC2)CCCCC1 | 20.3%
34 | O=C(CNC(=O)c1ccc(Br)cc1)NC1CC1 | -0.987%
35 | COc1ccc(C(=O)Nc2cccc(-c3nc4ncccc4o3)c2C)cc1 | -4.81%
36 | Cc1c(N/C=C/C(=O)c2ccc(Cl)cc2)c(=O)n(-c2ccccc2)n1C | -24.2%
37 | O=C(OCc1nnc(-c2ccccc2)o1)C1CCN(S(=O)(=O)c2cccs2)CC1 | -18.1%
38 | CCn1c(COc2cccc3ccccc23)nnc1SCC(N)=O | 12.6%
39 | C/C(=N\NC(=O)c1ccncc1)c1ccc(N(C)C)cc1 | 15.5%
40 | CCCCC1=CC2=CC(=O)C(C)(OC(=O)c3ccco3)C(=O)C2=CO1 (stereo not shown) | 0.553%
41 | CCN(CC)C(=O)C1CCC(C)(C(=O)O)C1(C)C (stereo not shown) | 3.91%
42 | O=C(CSc1nnnn1-c1ccc(O)cc1)Nc1cccc(S(=O)(=O)N2CCCC2)c1 | -16.1%
43 | Cn1c(C(=O)N2CCCC(C(=O)NCc3ccc4c(c3)OCO4)C2)cc2sccc21 (stereo not shown) | -45.3%
44 | CCOC(=O)Cc1csc(NC(=O)c2sc3nc4cc(C)ccc4cc3c2N)n1 | -6.55%

Row | Compound | hERG current change (%, negative = inhibition) at 10uM
45 | CCOC(=O)c1cc(C)sc1NC(=O)CN1CCN(C(=O)c2ccco2)CC1 | -72.8%
46 | Cc1ccc(S(=O)(=O)NC(=O)c2cc(C)n(CCCN3CCOCC3)c2C)cc1 | 13.7%
47 | COc1ccc(CCN(C)Cc2ccncc2)cc1OC | -27.2%
48 | Cc1cccc(N2CCN(S(=O)(=O)c3ccc4c(c3)CCN4C(=O)CCC(=O)O)CC2)c1C | -1.59%
49 | COC(=O)c1cc(NC(=O)Cn2nc(C)n3cccc3c2=O)cc(C(=O)OC)c1 | 4.88%
50 | CC1CN(C(=O)c2cccs2)CCN1C(=O)c1cccs1 (stereo not shown) | 3.29%
51 | COc1ccc(C(=O)OCC(=O)Nc2ccccc2)cc1[N+](=O)[O-] | 10.9%
52 | CCCCNC(=O)Nc1ccccn1 | 7.81%
53 | Clc1ccc(OCc2nnnn2-c2ccccc2)cc1 | -17.1%
54 | CC(Sc1nncn1C)C(=O)NCc1ccc2c(c1)OCO2 (stereo not shown) | 34.9%
55 | NS(=O)(=O)c1ccc(NC(=S)NCc2ccc3c(c2)OCO3)cc1 | 28.2%
56 | CCc1ccc(NC2=CC(=O)CC(c3ccco3)C2)cc1 (stereo not shown) | 5.49%
57 | Cc1cc(C)c(NC(=O)CN2CCN(c3ccccn3)CC2)c(C)c1 | -14.6%
58 | COc1cc(C(=O)NCCC2=CCCCC2)ccc1OC1CCN(C(C)=O)CC1 | 2.98%
59 | Nc1c(Cl)c(Cl)nc(C(=O)N/N=C/c2ccco2)c1Cl | 13.6%
60 | COC(=O)C1=CO[C@@H](O[C@@H]2O[C@H](CO)[C@@H](O)[C@H](O)[C@H]2O)[C@H]2[C@@H]1C(=O)C[C@@H]2C | 23.3%
61 | CC1CN(C(=S)NC(=O)C2CCCCC2)CC(C)O1 (stereo not shown) | 1.44%
62 | COc1cc(OC)c(NC(=O)CN(C)S(=O)(=O)c2ccc(-c3ccc(=O)[nH]n3)s2)cc1Cl | -56.5%
63 | CCCc1nnc(NC(=O)C23CC4CC(CC(C4)C2)C3)s1 | 18.8%
64 | COC(=O)CCCNC(=O)CCc1nnc(-c2ccc(-c3ccccc3)cc2)o1 | 11.5%
65 | O=C(CN(C(=O)CNC(=O)c1ccco1)c1ccc2c(c1)OCCO2)NC1CCCC1 | 6.06%
66 | O=C(NCC1(N2CCCCC2)CCCCC1)c1ccc(S(=O)(=O)N2CCCC2)cc1 | -21.7%

Row | Compound | hERG current change (%, negative = inhibition) at 10uM
67 | O=C(O)c1ccc2c(c1)-c1nc3ccccc3n1C2=O | 14%
68 | Cc1cc(-c2ccc(S(=O)(=O)N3CCN(c4ccc(F)cc4)CC3)s2)on1 | 10.5%
69 | CCNC(=O)N1CCC(n2nccc2NC(=O)CCOc2ccccc2)CC1 | 9.99%
70 | Cc1sc(NC(=O)C2=COCCO2)nc1-c1ccc(Cl)cc1 | 13%
71 | CCc1nn2c(=O)cc(COC(=O)c3cc(Cl)c(OC)c(OC)c3)nc2s1 | -69.5%
72 | CCN(CCC(=O)Nc1cc([N+](=O)[O-])ccc1OC)Cc1ccccc1 | -34.9%
73 | COC(=O)c1sc2nc(CSc3nc4ccc(C)cc4[nH]3)[nH]c(=O)c2c1C | 17.4%
74 | CCO[C@@H]1OC(C(=O)Nc2ccccc2)=C[C@H](c2csc3ccccc23)[C@H]1CCCO | -45.8%
75 | CSc1nc(-c2ccc(C)cc2)nc(C(Cl)Cl)n1 | 6.95%
76 | Cc1c(C(=O)NN2CCOCC2)oc2ccccc12 | 16.5%
77 | O=C(NCCc1cccc(F)c1)C1CCN(S(=O)(=O)c2ccc(F)cc2)CC1 | -2.7%
78 | C/C(Cl)=C/Cn1c(=O)c2c(nc(Br)n2Cc2ccccc2)n(C)c1=O | -5.85%
79 | COc1ccc(CCNC(=O)Cn2c(=O)[nH]c3ccsc3c2=O)cc1OC | 11%
80 | CCC(CO)NC(=O)c1cc2c(s1)CCC2 (stereo not shown) | 1.21%
81 | N#C/C(=C\c1c(N2CCN(c3ccccc3)CC2)nc2ccccn2c1=O)C(N)=O | -43%
82 | CC(C)C[C@H](NC(=O)c1[nH]cnc1C(=O)Nc1ccc(CNC(=O)OC(C)(C)C)cc1)C(=O)OCc1ccccc1 | 9.41%
83 | COC(=O)CN(c1ccccc1)S(=O)(=O)c1cc(Br)ccc1OC | -25.5%
84 | COc1ccc(Nc2nc(N)nc(CSCCO)n2)cc1 | -7.19%
85 | Cc1cc(-c2cc(C(=O)NC3CCCC3)on2)nc(NCC2CC2)n1 | 4.61%
86 | Cn1c(=O)c2c(nc(NC(Cc3ccccc3)C(=O)O)n2Cc2ccccc2)n(C)c1=O (stereo not shown) | -1.44%
87 | CCN1CCCn2c1nc1c2c(=O)n(C)c(=O)n1C | 4.13%
88 | O=c1c2c3c(sc2nc2n1CCCCC2)C(O)CCC3 (stereo not shown) | 3.27%
